# Results published in the supplement of paper PMC8728848.
# Some of the results follow.
# B1: EEA (Euonymus europaeus) (protein)
# chain: MASTIIATGPTYRVYCRAAPNYNMIVGKGVAFLAPIDETNELQYWYKDDTYSYIKDEAGLPAFSLVNKATGLTLKHSNHHPVPVKLVTYNPNVVDESVLWSQADDRGDGYSAIRSLTNPASHLEAAPLNDWSYNGAIIMGGVWIDAYNQQWKIEPHTG
# Key:
# Test in all cases: glycan array binding signal (z-score within array); higher = stronger binding
# Details in all cases: glycan notation: IUPAC condensed, linker removed
# [1] = target: Gal(b1-4)GlcNAc(b1-3)Gal(b1-4)GlcNAc(b1-3)GalNAc
# Outline: (§1)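 Arrays were curated from the Consortium for Functional Glycomics database, 3228 in total, and kept only where the protein sequence was available. Binding is expressed as a within-array Z-score. This score was averaged across arrays of the same protein sequence at different concentrations or buffers and across linkers, and negative values can be read as non-binding.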
# [2] = target: Gal(b1-4)GlcNAc(b1-3)Gal(b1-4)GlcNAc(b1-3)[Gal(b1-4)GlcNAc(b1-3)Gal(b1-4)GlcNAc(b1-6)]GalNAc
# Outline: as §1
# [3] = target: Gal(b1-4)GlcNAc(b1-3)Gal(b1-4)GlcNAc(b1-6)[Gal(b1-3)]GalNAc
# Outline: as §1
# [4] = target: Gal(b1-4)GlcNAc(b1-3)Gal(b1-4)[Fuc(a1-3)]GlcNAc(b1-3)Gal(b1-4)[Fuc(a1-3)]GlcNAc
# Outline: as §1
# [5] = target: Gal(b1-4)GlcNAc(b1-3)GalNAc
# Outline: as §1
# [6] = target: Gal(b1-4)GlcNAc(b1-3)[Fuc(a1-3)GlcNAc(b1-6)]Gal(b1-4)Glc
# Outline: as §1
# [7] = target: Gal(b1-4)GlcNAc(b1-3)[Gal(b1-4)GlcNAc(b1-6)]Gal(b1-4)GlcNAc
# Outline: as §1
# [8] = target: Gal(b1-4)GlcNAc(b1-3)[Gal(b1-4)GlcNAc(b1-6)]GalNAc
# Outline: as §1
# [9] = target: Gal(b1-4)GlcNAc(b1-3)[GlcNAc(b1-6)]Gal(b1-4)GlcNAc
# Outline: as §1
# [10] = target: Gal(b1-4)GlcNAc(b1-6)Gal(b1-4)GlcNAc
# Outline: as §1
# [11] = target: Gal(b1-4)GlcNAc(b1-6)Gal(b1-4)GlcNAc(b1-6)GalNAc
# Outline: as §1
# [12] = target: Gal(b1-4)GlcNAc(b1-6)GalNAc
# Outline: as §1
# [13] = target: Gal(b1-4)GlcNAc(b1-6)[Gal(b1-3)]GalNAc
# Outline: as §1
# [14] = target: Gal(b1-4)GlcNAc(b1-6)[Gal(b1-3)]GlcNAc
# Outline: as §1
# [15] = target: Gal(b1-4)GlcNAc(b1-6)[Gal(b1-4)GlcNAc(b1-3)]GalNAc
# Outline: as §1
# Gal(b1-4)GlcNAc6P = target: Gal(b1-4)GlcNAc6P
# Outline: as §1
# Gal(b1-6)Gal = target: Gal(b1-6)Gal
# Outline: as §1
# Gal3S(b1-3)GalNAc = target: Gal3S(b1-3)GalNAc
# Outline: as §1
# Gal3S(b1-3)GlcNAc = target: Gal3S(b1-3)GlcNAc
# Outline: as §1
# [16] = target: Gal3S(b1-3)[Fuc(a1-4)]GlcNAc
# Outline: as §1
# Gal3S(b1-4)Glc = target: Gal3S(b1-4)Glc
# Outline: as §1
# Gal3S(b1-4)Glc6S = target: Gal3S(b1-4)Glc6S
# Outline: as §1
# Gal3S(b1-4)GlcNAc = target: Gal3S(b1-4)GlcNAc
# Outline: as §1
binder,measurement,setting,value
B1,glycan array binding signal (z-score),[1],0.371
same,glycan array binding signal (z-score),[2],0.307
same,glycan array binding signal (z-score),[3],0.556
same,glycan array binding signal (z-score),[4],-0.222
same,glycan array binding signal (z-score),[5],-0.146
same,glycan array binding signal (z-score),[6],-0.11
same,glycan array binding signal (z-score),[7],-0.261
same,glycan array binding signal (z-score),[8],-0.249
same,glycan array binding signal (z-score),[9],-0.062
same,glycan array binding signal (z-score),[10],-0.238
same,glycan array binding signal (z-score),[11],-0.293
same,glycan array binding signal (z-score),[12],-0.101
same,glycan array binding signal (z-score),[13],-0.132
same,glycan array binding signal (z-score),[14],-0.155
same,glycan array binding signal (z-score),[15],-0.186
same,glycan array binding signal (z-score),Gal(b1-4)GlcNAc6P,-0.096
same,glycan array binding signal (z-score),Gal(b1-6)Gal,-0.197
same,glycan array binding signal (z-score),Gal3S(b1-3)GalNAc,-0.139
same,glycan array binding signal (z-score),Gal3S(b1-3)GlcNAc,-0.205
same,glycan array binding signal (z-score),[16],-0.156
same,glycan array binding signal (z-score),Gal3S(b1-4)Glc,-0.159
same,glycan array binding signal (z-score),Gal3S(b1-4)Glc6S,-0.062
same,glycan array binding signal (z-score),Gal3S(b1-4)GlcNAc,-0.217
